Test results published in PubChem BioAssay AID1745845 (National Center for Advancing Translational Sciences (NCATS), 2022).
Values joined by “and” are separate entries in the source; they are usually repeats but may differ in a detail not shown here. Equal values may be shown once. In all, about 360,000 compounds went through this assay and about 2,600 (0.72%) were called active. The shares of active, inactive and inconclusive entries below differ from those in the screen. Calls come from the whole dose curve; as a rule, active = well fitted inhibition curve with a large enough effect; inconclusive = small, poorly fitted or top-dose-only effect; inactive = no such curve, though single readings can be large or run the other way. Where the call is inconclusive, the potency comes from a doubtful curve fit.

Test: Primary qHTS for Inhibitors of ATXN expression; note: nearly all actives have a fitted effect of over 55% in size
Settings: HEK-293 ATXN2-luciferase reporter, luminescence, 24 h; activity change, negative = inhibition: at 57 µM (top of the series)
Summary of the method: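 qHTS (up to 57 uM final) was run with 24 h compound exposure of reporter cells at 37 °C. Each well was multiplexed: SteadyGlo luminescence measured ATXN2-luciferase expression after a fluorogenic Gly-Phe-AFC viability readout (25 uM final).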
% is set by controls: 0 for no effect and ±100 for the full control effect; potency is the fitted concentration of half-maximal effect; tags give direction and shape of the fitted curve.

Compound	activity change, negative = inhibition	Potency
CC1CCCCN1C(=O)C1CCCCN1S(=O)(=O)c1cccc([N+](=O)[O-])c1 (centres undefined)	inactive: -4.52%	
COc1cccc(C(=O)Oc2c(Sc3ccc(C)cc3)c(C)nn2C(C)(C)C)c1OC		inconclusive: 22.4 µM [inhibitor, partial curve, poor fit]
CCCCC[C@@H](/C=C/C1C(=O)C=C[C@H]1C/C=C\CCCC(=O)OC)OC(C)=O (some centres undefined)		inconclusive: 31.6 µM [inhibitor, single point]
Cc1ccnc(NC(=O)c2cc3cc(F)ccc3s2)c1	inactive: 49.6%	
O=C(NC(c1ccc(Cl)cc1)c1cnccn1)C1CCN(Cc2cccc(C(F)(F)F)c2)CC1 (centres undefined)		inconclusive: 31.6 µM [inhibitor, partial curve, poor fit]
CCCN(CCC)CC(O)CN(c1ccccc1)S(=O)(=O)c1ccc(C)cc1 (centres undefined)	inactive: 1.35%	
COC(=O)c1ccc(NC(=O)CN(C)S(=O)(=O)c2ccc(Br)s2)cc1	inactive: -24.4%	
CN(Cc1ccccc1)C(=O)c1ccccc1C(=O)OCC(=O)N(Cc1ccccc1)C(C)(C)C		inconclusive: 31.6 µM [inhibitor, single point]
C=C(CC)C(=O)c1ccc(OCC(=O)O)c(Cl)c1Cl		inconclusive: 39.8 µM [inhibitor, single point] and inconclusive: 28.2 µM [inhibitor, single point]
Cc1ccc(N(CC(=O)Nc2cccc(Cl)c2C)S(=O)(=O)c2c(C)noc2C)cc1		inconclusive: 31.6 µM [inhibitor, single point]
CCC(C)NC(=O)C(=O)NCc1ccncc1 (centres undefined)	inactive: -11.3%	
Cn1c(C(=O)N2CCN(c3nc4ccccc4s3)CC2)cc2sccc21		inconclusive: 15.8 µM [inhibitor, partial curve, poor fit]
COc1ccc(Cl)cc1Nc1cc(C)nc2ccccc12	inactive: -33.9%	
Cc1ccc(C)c(OCCn2c(C3CC(=O)N(Cc4ccc(F)cc4)C3)nc3ccccc32)c1 (centres undefined)		inconclusive: 39.8 µM [inhibitor, single point]
Cc1oc2c(F)c(F)c(F)c(F)c2c1S(=O)(=O)Nc1cccc(C(F)(F)F)c1		inconclusive: 4.47 µM [inhibitor, partial curve, poor fit]
Cc1cc(C)c(NC(=O)CSc2nc3ccccc3c3nc(CCn4cncc4C)nn23)c(C)c1		inconclusive: 4.47 µM [inhibitor, full curve, poor fit]
COCCNC(=S)N1CCC(c2nc(-c3ccc(F)cc3)no2)CC1	inactive: -28.1%	
CCCCCCC(=O)Nc1nc(C)c(-c2csc(Nc3ccc(Cl)cc3)n2)s1		inconclusive: 25.1 µM [inhibitor, partial curve, poor fit]
Cc1nonc1C(=O)N/N=C/c1ccc([N+](=O)[O-])o1		inconclusive: 5.32 µM [inhibitor, partial curve]
N#Cc1c(-c2ccccc2)cc(C2CC2)nc1N	inactive: 0.146%	
O=C(NCc1ccncc1)c1cccc(S(=O)(=O)NCc2ccccc2)c1	inactive: -9.2%	
NC(=O)[C@@H]1CC2(CC(c3cccc(NC(=O)CC(c4ccccc4)c4ccccc4)c3)=NO2)CN1C(=O)c1ccc(Cl)cc1 (some centres undefined)		inconclusive: 28.2 µM [inhibitor, single point]
O=C(COc1ccc2ccccc2c1Br)Nc1ncn[nH]1		inconclusive: 39.8 µM [inhibitor, single point]

Compound	activity change, negative = inhibition	Potency
COc1cc(OC)cc(C(=O)Nc2cc(-c3nc4ccccc4[nH]3)ccc2C)c1		inconclusive: 39.8 µM [inhibitor, single point]
COc1ccccc1NC(=O)Nc1ccc2c(c1)nc(C)n2C	inactive: -4.99%	
CCOc1ccc(C(=O)Nc2ccc(N3CCN(C(=O)c4ccco4)CC3)cc2)cc1Br		inconclusive: 11.2 µM [inhibitor, partial curve, poor fit]
CCCCNS(=O)(=O)c1ccc2nc(SCC(=O)c3ccccc3OC)[nH]c2c1		inconclusive: 12.6 µM [inhibitor, partial curve, poor fit]
COc1ccc(OC)c2sc(N(CCCN(C)C)C(=O)CCS(=O)(=O)c3ccccc3)nc12		inconclusive: 39.8 µM [inhibitor, single point]
CCCC[C@@]1(C2CCCC2)Cc2cc(OCC(=O)O)c(Cl)c(Cl)c2C1=O		inconclusive: 20 µM [inhibitor, partial curve, poor fit]
COc1ccccc1NC(=O)Nc1nc(CC(=O)N2CCN(c3ccccc3F)CC2)cs1		inconclusive: 1 µM [inhibitor, single point]
COC(=O)c1cccc(NC(=O)NC(=O)c2ccc(Cl)cc2)c1		inconclusive: 1.41 µM [inhibitor, full curve, poor fit]
COc1ccc(OC)c(NC(=O)c2ccc3c(SCC(=O)O)c4c(nc3c2)CCCC4)c1	inactive: 4.84%	
Cc1ccc(C)c(CN2CCC(CNC(=O)Nc3ccc(C)c(C)c3)CC2)c1	inconclusive: -50.4% [inhibitor]	
Cc1ccc(C(=O)NC(=S)Nc2cccnc2Cl)cc1	inactive: 23.4%	
CC1(C)CC(=O)C=C(c2ccc(COC(=O)c3cccc(C(F)(F)F)c3)cc2)C1=O		inconclusive: 25.1 µM [inhibitor, partial curve, poor fit]
N#Cc1c(N)nc2c(c1-c1cccc(O)c1)CCCCCC2		inconclusive: 11.2 µM [inhibitor, partial curve]
Cn1cc(S(=O)(=O)N2CCCCCC2)cc1C(=O)N1CCN(c2cccc(C(F)(F)F)c2)CC1		inconclusive: 20 µM [inhibitor, single point]
CCC(Sc1nncn1C)C(=O)Nc1nnc(-c2ccccc2Cl)s1 (centres undefined)	inactive: 17%	
COC(=O)COc1cccc(NC(=O)c2cccs2)c1	inactive: -0.586%	
N#Cc1c(Oc2ccc3ccccc3c2)sc(C(=O)c2ccccc2)c1N		inconclusive: 31.6 µM [inhibitor, single point]
CCN1CCN(c2nc(-c3ccccn3)nc3ccccc23)CC1		inconclusive: 28.2 µM [inhibitor, single point]
Cc1oc2ccc(O)cc2c1C(=O)c1ccc(Br)cc1	inactive: 13.6%	
Cn1c(=O)c2c(nc(CN3CCN(c4ccccc4F)CC3)n2Cc2ccccc2F)n(C)c1=O	inactive: 5.21%	
CCCCC(=O)Nc1cccc(NC(=S)NC(=O)Cc2ccccc2)c1	inactive: -13.9%	
O=C(Cc1coc2cc3c(cc12)CCC3)OCC(=O)N1CCCC1=O		inconclusive: 15.8 µM [inhibitor, partial curve]
Cc1c(CN2CCN(CC(C)C)C(CCO)C2)[nH]c2ccc(Cl)cc12 (centres undefined)		inconclusive: 20 µM [inhibitor, partial curve, poor fit]

Compound	activity change, negative = inhibition	Potency
CCOC(=O)c1ccc(NC(=O)CSc2ccc(-c3ccccn3)nn2)cc1		inconclusive: 39.8 µM [inhibitor, single point]
CCOc1ccc2[nH]c3c(N4CCc5ccccc5C4)ncnc3c2c1	inactive: -63.9%	
COc1ccc(Nc2nc(S(=O)(=O)c3ccc(C)cc3)c(Cl)s2)cc1		inconclusive: 39.8 µM [inhibitor, single point]
COc1ccc(CNCc2ccccc2C(F)(F)F)cc1	inconclusive: -40.8% [inhibitor]	
NS(=O)(=O)c1ccc(NCc2cc(Cl)ccc2OCc2ccccc2F)cc1		inconclusive: 25.1 µM [inhibitor, single point]
COc1cc2c(Oc3ccc(-c4cnc(Nc5ccc(F)cc5)n(C)c4=O)cc3F)ccnc2cc1OCCCN1CCOCC1		active: 24.3 µM
CC(C)C[C@H]1CNC(=S)N1C[C@H]1CCCN1C[C@H](Cc1ccccc1)N1C[C@H](Cc2ccc(O)cc2)N(CC2CCCCC2)C1=S		inconclusive: 39.8 µM [inhibitor, single point]
CCN1CCN(C(=O)c2cc3cc(Cl)ccc3[nH]2)CC1	inactive: -7.81%	
COc1ccc2c(C)c(CCC(=O)NCc3ccc(C)cc3)c(=O)oc2c1	inactive: -1.8%	
OC(CSc1ccc(F)cc1)CN1CCN(c2ccccc2)CC1 (centres undefined)	inactive: -1.21%	
Cc1nc2ccccc2c(N)c1C(=O)/C=C/c1ccccc1		inconclusive: 39.8 µM [inhibitor, single point]
Cc1cc(C)cc(NC(=O)CCc2nnc3n(C)c(=O)c4sccc4n23)c1	inactive: 1.07%	
O=[N+]([O-])c1ccc(NS(=O)(=O)c2ccccc2)c(Cl)c1		inconclusive: 39.8 µM [inhibitor, single point]
Cc1cc(C)cc(OCC(O)Cn2nc(C)cc2C)c1 (centres undefined)	inactive: -6.06%	
COc1ccc(Cl)cc1NC(=O)CN(C)C(=O)Cc1ccc(-c2ccccc2)cc1	inactive: -9.38%	
CCN(CC(=O)Nc1ccc2c(c1)OCCO2)C(=O)COc1ccc(C)cc1	inactive: 7.52%	
COc1ccccc1CNc1nc(NCc2ccccc2F)c2sccc2n1		inconclusive: 22.4 µM [inhibitor, single point]
Cn1cc(/C=C/c2cc[n+](C)cc2)c2cc(Cl)ccc21		inconclusive: 17.8 µM [inhibitor, partial curve, poor fit]
Cc1ccc(S(=O)(=O)Nc2ccc(NC(=O)Nc3cccc(C(F)(F)F)c3)cc2)cc1		inconclusive: 28.2 µM [inhibitor, single point]
Cc1ccc(/C=C(\NC(=O)c2ccc(C)cc2)c2nc(=S)[nH][nH]2)cc1		inconclusive: 39.8 µM [inhibitor, single point]
CCCN(Cc1ccccc1)C(=S)Nc1ccc(F)cc1	inactive: -6.29%	
COc1cccc(-c2ccc(-c3noc(-c4cccs4)n3)c(OC)n2)c1		inconclusive: 39.8 µM [inhibitor, single point]
COc1ccccc1N1CCN(C(=O)CCc2nnc3ccc(N4CCC(C)CC4)nn23)CC1	inactive: -3.35%	
